The other results are listed elsewhere or left out.

This experiment has as its system HSkMC (human skeletal muscle cells). The experiment can be described thus: cytotoxicity call (relative viability < 0.9). The following applies: 10 µM.
Consider `C[C@@H]1CN([C@H](C)CO)C(=O)c2c(c3ccccc3n2C)-c2ccccc2CO[C@@H]1CN(C)Cc1ccc2c(c1)OCO2`, for which the cytotoxicity call was “inactive”.
Then `C[C@H](CO)N1C[C@H](C)[C@@H](CN(C)Cc2ccc(C(=O)O)cc2)Oc2ccc(NC(=O)CCN3CCOCC3)cc2CC1=O`, with “inactive”; and `NC[C@H]1OB(O)c2c(OCCO)ccc(Cl)c21`, with “inactive”; and `C[C@H](CO)N1C[C@H](C)[C@H](CN(C)S(=O)(=O)c2cccs2)Oc2ccc(NS(=O)(=O)c3cccs3)cc2C1=O`, with “inactive”.
In the case of `Cc1noc(C)c1NC(=O)N(C)C[C@@H]1OCCCC[C@@H](C)Oc2ccc(NS(=O)(=O)c3cccs3)cc2C(=O)N([C@@H](C)CO)C[C@H]1C`, the cytotoxicity call is “inactive”.
Take `CC(C)(C)[S@@](=O)N1Cc2cc(C(=O)N[C@H]3CCN(Cc4ccccc4)C3)nc(-c3cccc(-c4ccncc4)c3)c2[C@H]1CCO`: the cytotoxicity call was “inactive”.
As for `C[C@@H]1CN([C@@H](C)CO)C(=O)Cc2cc(NC(=O)Nc3ccc(F)cc3)ccc2O[C@H]1CN(C)Cc1ccc(-c2ccccc2)cc1`, the entry is “inactive”; as for `NCc1ccc(Br)s1`, “inactive”; as for `C[C@H](CO)N1C[C@H](C)[C@@H](CN(C)Cc2ccc(-c3ccccc3)cc2)Oc2ccc(NC(=O)Cn3cnnn3)cc2CC1=O`, “inactive”.
Then `C[C@@H]1CN([C@@H](C)CO)C(=O)Cc2cc(NC(=O)Nc3ccc(C(F)(F)F)cc3)ccc2O[C@@H]1CN(C)Cc1ccc(C(=O)Nc2ccccc2N)cc1`, with “inactive”; and `COCC#Cc1ccc2c(c1)O[C@H](CN(C)C(=O)COC)[C@@H](C)CN([C@@H](C)CO)S2(=O)=O`, with “inactive”.
As to `COc1ncnc(OC)c1C`, the cytotoxicity call was “inactive”.
As for `C[C@H]1CN([C@@H](C)CO)C(=O)c2cc(NS(=O)(=O)c3ccc(Cl)cc3)ccc2O[C@H]1CN(C)Cc1ccc(Oc2ccccc2)cc1`, the cytotoxicity call was “active”.
Then `C[C@H](CO)N1C[C@H](C)[C@@H](CN(C)C(=O)Nc2cccc(C(F)(F)F)c2)OCc2cnnn2CCCC1=O`, with “inactive”.
With `O=C(CNc1ccc2c(c1)oc1ccccc12)c1ccc(F)cc1`, the cytotoxicity call was “inactive”.
Then `Cc1ccc(S(=O)(=O)Nc2ccc3c(c2)CC(=O)N([C@H](C)CO)C[C@@H](C)[C@H](CN(C)Cc2ccc(-c4ccccc4)cc2)O3)cc1`, with “active”.
Then `C[C@@H]1CCCCO[C@H](CN(C)Cc2ccccc2)[C@@H](C)CN([C@@H](C)CO)C(=O)c2cc(NS(=O)(=O)c3ccc(Cl)cc3)ccc2O1`, with “inactive”.
Regarding `COc1ccc2c3c(n(c2c1)C)[C@@H](CO)N(C[C@]13CCN(CC1)C(=O)CN1CCOCC1)C(=O)Nc1ccc(cc1)F`, the cytotoxicity call is “inactive”.
As for `C[C@H](CO)N1C[C@H](C)[C@H](CN(C)S(=O)(=O)c2cccc(F)c2)Oc2ncc(C#Cc3cccc(F)c3)cc2C1=O`, the entry is “inactive”; as for `Cc1nc2[nH]c(C)c(CCC(=O)O)c(=O)n2n1`, “inactive”.
`O=C(O)c1ccoc1`: the cytotoxicity call is “inactive”.
In the case of `C[C@@H]1CN([C@H](C)CO)C(=O)c2cc(NC(=O)Nc3ccc4c(c3)OCO4)ccc2O[C@@H](C)CCCCO[C@H]1CN(C)C(=O)Cc1ccccc1`, the cytotoxicity call is “inactive”.
As for `C[C@@H]1CN([C@@H](C)CO)C(=O)c2cc(NC(=O)Nc3ccc(F)cc3)ccc2O[C@@H](C)CCCCO[C@@H]1CN(C)S(=O)(=O)c1cccs1`, the entry is “inactive”; as for `C[C@@H]1CCCCO[C@@H](CN(C)Cc2ccccc2)[C@@H](C)CN([C@H](C)CO)C(=O)c2cc(NC(=O)Nc3ccc(F)cc3)ccc2O1`, “inactive”.
For `COc1ccc(-c2cnc3c(c2)C(=O)N([C@H](C)CO)C[C@H](C)[C@H](CN(C)S(=O)(=O)c2cccc(OC)c2)O3)cc1`, the cytotoxicity call is “inactive”.
As for `C[C@H]1CN([C@@H](C)CO)C(=O)c2cccc(NC(=O)Nc3ccc4c(c3)OCO4)c2O[C@H]1CN(C)S(C)(=O)=O`, the entry is “inactive”; as for `COCc1nnc2n1CCN(C(=O)c1ccn[nH]1)C2`, “inactive”; as for `O=C(N[C@H]1CCN(C(=O)c2cc(C(F)(F)F)cc(C(F)(F)F)c2)[C@H](Cc2ccc(Cl)cc2)C1)c1ccnc2ccccc12`, “active”.
Then `C[C@H](CO)N1C[C@H](C)[C@H](CN(C)S(=O)(=O)c2cccc(F)c2)Oc2ncc(Br)cc2C1=O`, with “inactive”; and `C[C@H](CO)N1C[C@H](C)[C@@H](CN(C)C(=O)Nc2ccccc2)OCCCC[C@H](C)Oc2ccc(NS(=O)(=O)c3ccc(Cl)cc3)cc2C1=O`, with “inactive”; and `COc1ccc(S(=O)(=O)Nc2cccc3c2O[C@H](CN(C)S(=O)(=O)c2ccc(C)cc2)[C@H](C)CN([C@H](C)CO)C3=O)cc1`, with “inactive”.
Regarding `CC(C)NC(=O)N(C)C[C@@H]1OCCCC[C@@H](C)Oc2ccc(NC(=O)Nc3ccc(F)cc3)cc2C(=O)N([C@@H](C)CO)C[C@H]1C`, the cytotoxicity call is “inactive”.
Then `Clc1ccc(Sc2ccc(-c3ccccn3)s2)cc1`, with “inactive”.
As for `CCNC(=O)[C@@H]1[C@@H](CO)[C@@H]2Cn3c(ccc(-c4cccc(C(=O)N(C)C)c4)c3=O)[C@H]1N2`, the entry is “inactive”; as for `O=C(C[C@H]1CC[C@@H](NC(=O)c2cnccn2)[C@H](CO)O1)NCc1ccccc1F`, “inactive”.
Take `O=C1C2C=CC([C@H]3[C@@H]2C=CC(=O)[C@]32CO2)[C@@]12CO2` (stereo not given in full): the cytotoxicity call was “inactive”.
In the case of `Cc1noc(C)c1NC(=O)Nc1ccc2c(c1)C(=O)N([C@H](C)CO)C[C@H](C)[C@@H](CN(C)C(=O)Nc1ccccc1)OCCCC[C@@H](C)O2`, the cytotoxicity call is “inactive”.
Then `COc1ccc(NC(=O)N(C)C[C@@H]2Oc3c(NC(=O)c4cc(C)nn4C)cccc3C(=O)N([C@H](C)CO)C[C@@H]2C)cc1`, with “inactive”; and `CC(=O)c1ccc[nH]1`, with “inactive”; and `Nc1ncnc2[nH]cnc12`, with “inactive”.

These data come from the antibiotic and cytotoxicity screens of Wong et al. (2023).
